Publication PMC4336329 (PLoS ONE, 2015)
Hit rate of the full screen: of about 310,000 compounds, about 2,200 (0.71%) showed an effect of 50% or more. Effects have a minus sign here. Some of the results follow.

The compounds below were run against human ether-à-go-go-related gene (hERG) potassium channel (human, UniProt Q12809) (assay: primary screen, population patch clamp on CHO cells stably expressing hERG).
Chain of human ether-à-go-go-related gene (hERG) potassium channel (Q12809 whole entry, looked up): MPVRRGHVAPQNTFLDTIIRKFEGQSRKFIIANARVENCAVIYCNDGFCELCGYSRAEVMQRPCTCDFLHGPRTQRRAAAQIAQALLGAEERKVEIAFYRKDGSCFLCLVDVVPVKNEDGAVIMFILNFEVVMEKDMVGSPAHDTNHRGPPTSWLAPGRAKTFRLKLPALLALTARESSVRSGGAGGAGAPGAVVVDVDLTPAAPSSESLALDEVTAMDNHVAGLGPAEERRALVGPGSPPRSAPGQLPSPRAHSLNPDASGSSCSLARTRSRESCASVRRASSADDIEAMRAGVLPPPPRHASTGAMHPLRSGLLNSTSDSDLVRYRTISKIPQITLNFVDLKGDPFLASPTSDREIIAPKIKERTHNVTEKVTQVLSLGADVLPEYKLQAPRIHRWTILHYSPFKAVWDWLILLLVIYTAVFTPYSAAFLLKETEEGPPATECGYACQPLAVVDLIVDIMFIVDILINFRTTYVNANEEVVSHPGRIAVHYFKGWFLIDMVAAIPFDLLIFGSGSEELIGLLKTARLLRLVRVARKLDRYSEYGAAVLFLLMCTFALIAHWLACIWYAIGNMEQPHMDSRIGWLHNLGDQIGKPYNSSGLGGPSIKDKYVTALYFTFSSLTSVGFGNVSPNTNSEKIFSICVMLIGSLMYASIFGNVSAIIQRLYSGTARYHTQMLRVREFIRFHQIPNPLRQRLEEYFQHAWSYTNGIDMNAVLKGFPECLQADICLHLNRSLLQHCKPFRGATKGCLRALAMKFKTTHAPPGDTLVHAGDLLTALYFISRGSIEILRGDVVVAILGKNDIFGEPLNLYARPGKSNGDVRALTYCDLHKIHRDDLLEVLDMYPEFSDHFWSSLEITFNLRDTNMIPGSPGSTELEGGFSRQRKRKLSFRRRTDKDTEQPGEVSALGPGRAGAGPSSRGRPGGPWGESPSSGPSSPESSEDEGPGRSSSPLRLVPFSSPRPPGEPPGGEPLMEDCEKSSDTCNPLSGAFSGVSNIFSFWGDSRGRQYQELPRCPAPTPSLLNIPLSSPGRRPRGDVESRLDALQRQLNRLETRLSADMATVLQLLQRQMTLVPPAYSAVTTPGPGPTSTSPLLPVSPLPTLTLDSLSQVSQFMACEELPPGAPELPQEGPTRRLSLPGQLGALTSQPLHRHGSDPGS

Row | SMILES | hERG current change (%, negative = inhibition) at 1uM [%]
1 | Cc1cc(OCC(=O)OCC(=O)Nc2ccc(Cl)cn2)ccc1Cl | 6.23
2 | O=[N+]([O-])c1cccc(S(=O)(=O)N2CCCCC2)c1 | 7.36
3 | CS(=O)(=O)O.c1cnc(N2CCN(Cc3ccc4c(c3)OCO4)CC2)nc1 | 16.5
4 | COC(=O)c1cc(Cl)c(NC(=O)/C=C/c2ccc(OC)cc2)cc1OC | 6.05
5 | O=C(CSc1nnc(NC(=O)c2cccc(F)c2)s1)NCc1ccco1 | 12.5
6 | O=C(c1ccco1)N1CCN(C(=O)c2cccc3c2C(=O)N(C2CCCCC2)C3)CC1 | 2.48
7 | O=C(Cc1ccccc1)NCC(=O)N/N=C/c1cccs1 | 14.6
8 | Cl.c1ccc2c(c1)oc1c(Nc3ccc4c(c3)OCCO4)ncnc12 | 6.16
9 | CCc1cc(C(=O)NNC(=S)Nc2ccccc2C)cs1 | -2.24
10 | Cc1ccc(C(=O)N/N=C/c2ccc3c(c2)OCO3)o1 | 10.3
11 | Cc1ccc(NC(=S)NC(=O)/C=C/c2ccc(Cl)cc2)cc1 | 13.1
12 | CC(C)C(=O)NC(=S)Nc1ccccn1 | 8.48
13 | CN(C)N(C)C(=O)C(O)(c1ccccc1)c1ccccc1 | 5.43
14 | COc1ccc(S(=O)(=O)Nc2ccccc2C(=O)N2CCOCC2)cc1OC | 7.85
15 | CCOc1ccc(Br)cc1S(=O)(=O)NC(=O)c1ccccc1 | 12.9
16 | Cc1cc(C)c[n+](CC(=O)c2ccc(NC(=O)c3ccccc3)cc2)c1.[Br-] | 11.5
17 | Cc1ccc(CSCCNS(C)(=O)=O)cc1 | 10.9
18 | COc1ccc(OC)c(/C=N/NC(=O)c2c(C)nc3ccc(C)cn23)c1 | 11.6
19 | CC(C)c1ccc(Nc2ncccc2C#N)cc1 | 6.51
20 | O=C(NCC(=O)N1CCN(c2ncccn2)CC1)c1cccs1 | 3.14
21 | COc1ccc2c(c1)O[C@H](c1ccc3c(c1)OCO3)[C@@H](OC(=O)N[C@H]1CCCc3ccccc31)C2=O | 10.1
22 | Nc1ncnc(Nc2cc(Cl)cc(Cl)c2)c1[N+](=O)[O-] | 8.04
23 | CC1(C)Cc2cccc(OCC(N)=O)c2O1 | 14.5

Row | SMILES | hERG current change (%, negative = inhibition) at 1uM [%]
24 | COc1ccc(CN2CCc3ccc(NC(=O)c4ccncc4)cc3C2)c(F)c1 | 0.723
25 | CCOc1cc2c(cc1OCC)-n1cccc1C(c1ccc(OC)c(OC)c1)NC2.Cl (centres unmarked) | -4.92
26 | CCc1ccc(NC(=O)N2CCc3ccccc3C2)cc1 | 14.8
27 | C=CCN1C(=O)/C(=C/C(=O)OC)S/C1=N\NC(=O)c1ccccc1 | 9.74
28 | CCc1n[nH]c(=S)n1/N=C/c1cccc2ccccc12 | 20.4
29 | O=C(Nc1nnc(SCc2ccc(F)cc2)s1)c1cnccn1 | -0.173
30 | O=C(OC1CCOC1=O)c1ccc(S(=O)(=O)N2CCCCCC2)cc1 (centres unmarked) | 10.7
31 | CC(=O)Nc1nc2ccccc2n1CCOc1ccccc1Cl | 16.8
32 | CC(=O)Nc1cccc(NC(=O)CSc2nc(=O)n3cccc(C)c3n2)c1 | 22.2
33 | Cc1cc(C(=O)Nc2nc3c(s2)CCCC3)cs1 | 7.91
34 | Cn1cnc(S(=O)(=O)N2CCN(C(c3ccc(F)cc3)c3ccc(F)cc3)CC2)c1 | 10.4
35 | Cc1ccc(C2(CCNCc3ccc(N(C)C)cc3)CCOC(C(C)C)C2)cc1 (centres unmarked) | -20.9
36 | COc1ccc(C(C#N)(CC(=O)O)c2cnccn2)cc1OC (centres unmarked) | 7.11
37 | Cn1cnnc1SCC(=O)c1ccc2c(c1)OCO2 | -9.66
38 | CCc1ccc(OCc2nnc(SCCN3CCOCC3)n2C)cc1.O=C(O)C(=O)O | 9.79
39 | N#Cc1c(/N=C/c2c(O)n(Cc3ccco3)c(=O)[nH]c2=O)sc2c1CCCC2 | -0.139
40 | Brc1cccc(-c2cnc3n2CCCCC3)c1.Cl | -16
41 | Cn1c(=O)oc2cc(S(=O)(=O)NCc3cccnc3)ccc21 | 8.9
42 | Cc1csc(NC(=O)[C@@H](NC(=O)c2ccccc2)C(C)C)n1 | 9.25
43 | CC1(C)CC(=O)C(C(c2ccccc2F)C2C(=O)CC(C)(C)CC2=O)C(=O)C1 | 11.5
44 | OCc1nc2ccc(Cl)cc2[nH]1 | 4.24
45 | CCN(CC)c1ccc(NC(=O)Cn2ncc3c(C)n(Cc4ccccc4F)c(C)c3c2=O)c(C)c1 | 9.67
46 | O=C(NC1CCCC1)C(c1ccccc1)N(Cc1ccccc1)C(=O)c1csnn1 (centres unmarked) | 5.13

Row | SMILES | hERG current change (%, negative = inhibition) at 1uM [%]
47 | Cc1cc(C)c2[nH]c(=S)cc(C)c2c1 | 17.8
48 | CN1CCN(C(=S)NC(=O)/C=C/c2ccccc2)CC1 | -16.5
49 | CCNC(=O)COC(=O)CNC(=O)c1cc(Cl)cc([N+](=O)[O-])c1 | 8.53
50 | CN(CC(=O)NCc1ccncc1)S(=O)(=O)c1ccc(Cl)cc1 | -13.5
51 | O=C(NCc1ccccc1)Nc1cccc2ccccc12 | 12.9
52 | N#Cc1ccc(NC(=O)CNc2cc(S(=O)(=O)N3CCOCC3)ccc2NCC2CCCO2)cc1 (centres unmarked) | 6.86
53 | O=C(Nc1ccc2c(c1)CCC2)c1cc(=O)[nH]c2ccccc12 | 7.36
54 | O=C(COC(=O)c1cc(Br)ccc1O)Nc1ccc2c(c1)OCO2 | 8.89
55 | CCOC(=O)c1c(C)[nH]c(C(=O)N2CCCC(C(=O)c3ccccc3OC)C2)c1C (centres unmarked) | 7.08
56 | Cc1nc(-c2cccc(NC(=O)C(C)Oc3ccccc3)c2)cs1 (centres unmarked) | 17.8
57 | CC(=O)N1CC=CC1(CC(C)C)C(=O)NCc1cc(F)cc(C(F)(F)F)c1 (centres unmarked) | 11.4
58 | CCCCNC(=O)Nc1ncn[nH]1 | 10.3
59 | NC(=NC(=O)c1ccccc1)C1=C(O)CCC1=O | 12.8
60 | CCn1c(-c2cccc(Br)c2)n[nH]c1=S | 14.6
61 | O=C1c2ccccc2S(=O)(=O)c2cc(C(=O)N3CCN(C(=O)c4ccccc4)CC3)ccc21 | 3.33
62 | CC(=O)NC(=S)Nc1ccccc1C(=O)NC1CCCCC1 | 4.03
63 | N#CC1=C(S)N(c2ccccc2)C(c2ccc(-c3ccc(Cl)c(Cl)c3)o2)NC1=O (centres unmarked) | -2.47
64 | Cc1ccc(NC(=O)CN(C)S(=O)(=O)c2cnc[nH]2)c(C)c1 | 15.6
65 | Clc1ccc(CSc2nnc(/C=C/c3ccccc3)o2)cc1 | -0.973
66 | Cc1cccc(N2CCN(C(=O)COc3ccc4c(C)cc(=O)oc4c3C)CC2)c1C | 15.2
67 | O=C(NNC(=O)c1cccs1)c1ccc(Cl)c(Cl)c1 | 13.1
68 | Cc1ccc(C2CC(c3cccs3)=NN2C(=O)CSC2=NCCS2)cc1 (centres unmarked) | 2.27
69 | CSc1c(SCc2ccccc2)cnn(-c2ccccc2)c1=O | 10.8

Row | SMILES | hERG current change (%, negative = inhibition) at 1uM [%]
70 | COc1ccc(OC)c(C(=O)CSc2nnc(-c3cccnc3)n2C)c1 | 6.98
71 | CC(C)=CCCC(C)CN1CCC(n2nccc2NC(=O)c2ccccc2)CC1 (centres unmarked) | -52.2
72 | Cn1c(NC2CCCCC2)c(N=O)c(=O)n(C)c1=O | 12.8
73 | Cc1cc(Br)ccc1NC(=O)C1CCCO1 (centres unmarked) | 8.71
74 | Cc1nnc(-c2ccccc2)c(=O)n1/N=C/c1c(O)ccc2ccccc12 | 8.19
75 | Cc1cc(NC(=O)Cn2ccsc2=N)c([N+](=O)[O-])cc1C.Cl | 3.03
76 | CC(C)C[C@H](NC(=O)c1[nH]cnc1C(=O)N[C@@H](C)c1ccccc1)C(=O)OCc1ccccc1 | 17.3
77 | CNC(=O)ON(C(=O)NC)C1N(C)C(=S)SC1(C)C (centres unmarked) | 0.943
78 | O=C(c1ccco1)N(Cc1ccc(Cl)cc1)Cc1ccco1 | 5.4
79 | Cc1[nH]n(-c2ccccc2)c(=O)c1C=NCC1CCCO1 (centres unmarked) | 12.2
80 | Cc1ccc(NC(=O)N2CCN(C/C=C/c3ccccc3)CC2)cc1 | -10.7
81 | CC(O)[C@H]1CNCCN1CCc1cccc2ccccc12 (some centres unmarked) | 5.81
82 | CC1CCN(S(=O)(=O)c2ccc(NC(=O)CSc3nnnn3C)cc2)CC1 | 2.79
83 | O=C(Nc1nnc(Cc2ccccc2F)s1)c1ccccc1Cl | 16.8
84 | Cc1cc(C)nc(SCC(=O)c2cc3ccccc3oc2=O)n1 | -0.0354
85 | CN(C)C(=O)COc1ccc2c(-c3ccccc3)cc(=O)oc2c1 | 14.7
86 | CCCCOc1ccc(C(=O)NCCOc2cccc(OC)c2)cc1 | 9.19
87 | CN(C)S(=O)(=O)c1ccc(NC(=O)CCNC(=O)c2ccco2)cc1 | 15.4
88 | Cc1ccc(C2OC(=O)c3ccccc32)cc1 (centres unmarked) | 2.46
89 | CS(=O)(=O)N1CC2CCCN2c2cc(C(F)(F)F)ccc21 (centres unmarked) | 11.7
90 | CCn1c(COc2c(C)cccc2C)nnc1SCC(=O)N1CCN(c2ccccc2)CC1 | 0.756
91 | COc1ccc(CN=C(NS(=O)(=O)c2cccs2)SC)cc1 | 2.29
92 | COc1ccc(CCNC(=O)COC(=O)C2CC2C)cc1OC (centres unmarked) | 11.1
